Measured values published in the supplement of paper PMC11880418.
Where a name gives a salt, the structure may show the parent alone. The list shows a part of the results. The data scatter; read single values as rough.

test system: SUM159; assay: ALDHbr (CSC) cell proportion score relative to DMSO vehicle (ratio to DMSO); breast (SUM159) / gastric (MKN45) / pancreatic (PANC1) / colon cancer lines; ALDHbr cells have high ALDH activity and are rich in cancer stem cells (CSC); higher = more CSC (ALDHbr) cells remaining; conditions: 10 µM; 72 h
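Also: High-content imaging of ALDEFLUOR-stained cells with Hoechst-labelled nuclei in 384-well plates, triplicate wells, scored as Z-score against 0.1% DMSO vehicle, negative meaning fewer ALDHbr cells.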

Structure (SMILES)	ALDHbr
CN(C)CCc1c[nH]c2ccc(C[C@H]3COC(=O)N3)cc12 [Zolmitriptan]	1.21
NS(=O)(=O)c1cc2c(cc1Cl)NCNS2(=O)=O [Hydrochlorothiazide]	0.955
C[C@H]1O[C@H](O[C@H]2[C@H](O)[C@@H](O)[C@@H](O[C@@H]([C@H](O)[C@@H](O)C=O)[C@H](O)CO)O[C@@H]2CO)[C@H](O)[C@@H](O)[C@@H]1N[C@H]1C=C(CO)[C@@H](O)[C@H](O)[C@H]1O [Acarbose]	1.11

test system: T84; assay: as above; conditions: 10 µM; 72 h

Structure (SMILES)	ALDHbr
C[C@]12CC[C@@H]3c4ccc(O)cc4CC[C@H]3[C@@H]1CCC2=O [Estrone]	0.843
CCCCC1(COC(=O)CCC(=O)O)C(=O)N(c2ccccc2)N(c2ccccc2)C1=O [Suxibuzone]	0.935
CCCCNc1c(C(=O)OCC)c(C)nc2c1cnn2CC [Tracazolate hydrochloride]	0.964
Cn1cnc([N+](=O)[O-])c1Sc1ncnc2[nH]cnc12 [Azathioprine]	0.759
O=C(CCCCC(=O)Nc1c(I)cc(I)c(C(=O)O)c1I)Nc1c(I)cc(I)c(C(=O)O)c1I [Iodipamide]	0.783
CN(C)CCOC(=O)COc1ccc(Cl)cc1 [Meclofenoxate hydrochloride]	0.925
C#CCN(C)CCCOc1ccc(Cl)cc1Cl [Clorgyline hydrochloride]	0.887
C#C[C@]1(O)CC[C@H]2[C@@H]3CCC4=C(CCC(=O)C4)[C@H]3CC[C@@]21C [Norethynodrel]	0.706
c1cnc(N2CCN(Cc3ccc4c(c3)OCO4)CC2)nc1 [Piribedil hydrochloride]	0.844
CCN(CC)CCOC(=O)C(c1ccccc1)c1ccccc1 [Adiphenine hydrochloride]	1.19
OCCOCCN1CCN(C2=Nc3ccccc3Sc3ccccc32)CC1 [Quetiapine hemifumarate]	0.916
CC(C)N1CCN(c2ccc(OCC3COC(Cn4cncn4)(c4ccc(Cl)cc4Cl)O3)cc2)CC1 (stereo not drawn) [Terconazole]	0.126
CN1CCC[C@@H]1CCO[C@](C)(c1ccccc1)c1ccc(Cl)cc1 [Clemastine fumarate]	0.13
CC(C)Oc1ccc2c(=O)c(-c3ccccc3)coc2c1 [Ipriflavone]	0.735
O=C(Cn1ccnc1[N+](=O)[O-])NCCO [Etanidazole]	1.03
O=C1c2c(O)cccc2Cc2cccc(O)c21 [Anthralin]	0.726
O=C(CCCN1CC=C(n2c(=O)[nH]c3ccccc32)CC1)c1ccc(F)cc1 [Droperidol]	0.792
N/C(=N\C(=O)c1nc(Cl)c(N)nc1N)NCc1ccccc1 [Benzamil hydrochloride]	0.685
CN1CCN2c3ncccc3Cc3ccccc3C2C1 (stereo not drawn) [Mirtazapine]	0.999
Nc1c2c(nc3ccccc13)CCCC2 [Tacrine hydrochloride]	0.783

Structure (SMILES)	ALDHbr
CC(=O)Nc1ccc(O)cc1 [Acetaminophen]	0.916
CN(C)CCOC(=O)C(c1ccccc1)C1(O)CCCC1 (stereo not drawn) [Cyclopentolate hydrochloride]	0.997
CN(C)CCN(Cc1ccc(Cl)cc1)c1ccccn1 [Chloropyramine hydrochloride]	0.888
COc1c(O[C@@H]2O[C@H](CO)[C@@H](O)[C@H](O)[C@H]2O)cc2c(c1OC)-c1ccc(SC)c(=O)cc1[C@@H](NC(C)=O)CC2 [Thiocolchicoside]	0.96
CC(C)Nc1cccnc1N1CCN(C(=O)c2cc3cc(NS(C)(=O)=O)ccc3[nH]2)CC1 [Delavirdine]	0.642
CCCCC(=O)N(Cc1ccc(-c2ccccc2-c2nnn[nH]2)cc1)[C@H](C(=O)O)C(C)C [Valsartan]	1.05
OC(CCN1CCCCC1)(c1ccccc1)c1ccccc1 [Pridinol methanesulfonate salt]	0.938
C/C=C(/C(=C/C)c1ccc(O)cc1)c1ccc(O)cc1 [Dienestrol]	1.01
CC[N+](C)(C)Cc1ccccc1Br [Bretylium tosylate]	0.864
COC1=C(OC)C(=O)C(CCCCCCCCCCO)=C(C)C1=O [Idebenone]	0.804
C[C@H](CCC(=O)O)[C@H]1CC[C@H]2[C@@H]3CC[C@@H]4C[C@H](O)CC[C@]4(C)[C@H]3CC[C@]12C [Lithocholic acid]	1.14
Nc1nc(F)nc2c1ncn2[C@@H]1O[C@H](CO)[C@@H](O)[C@@H]1O [Fludarabine]	0.948
O=C(O)Cc1ccccc1Nc1c(Cl)cccc1Cl [Diclofenac sodium]	0.914
O=C1Nc2ccc(Cl)cc2[C@@](C#CC2CC2)(C(F)(F)F)O1 [Efavirenz]	1.01
CCN(CC)CCNC(=O)c1cc(Br)c(N)cc1OC [Bromopride]	0.888
CN(Cc1ccc(C(C)(C)C)cc1)Cc1cccc2ccccc12 [Butenafine Hydrochloride]	0.95
CCCCc1ncc(/C=C(\Cc2cccs2)C(=O)O)n1Cc1ccc(C(=O)O)cc1 [Eprosartan mesylate]	1.09
CN(C)CCc1c[nH]c2ccc(C[C@H]3COC(=O)N3)cc12 [Zolmitriptan]	0.966
NS(=O)(=O)c1cc2c(cc1Cl)NCNS2(=O)=O [Hydrochlorothiazide]	0.681
C[C@H]1O[C@H](O[C@H]2[C@H](O)[C@@H](O)[C@@H](O[C@@H]([C@H](O)[C@@H](O)C=O)[C@H](O)CO)O[C@@H]2CO)[C@H](O)[C@@H](O)[C@@H]1N[C@H]1C=C(CO)[C@@H](O)[C@H](O)[C@H]1O [Acarbose]	0.959
